# Test results: patent US20120260922A1, “TOPICAL USE OF HYDROXYTYROSOL AND DERIVATIVES FOR THE PREVENTION OF HIV INFECTION” (priority 2009, published 2012)
# Test system: R5-tropic virus (JR-Renilla)
# Assay: microbe, parasite or virus in culture
# Format: cell-based, HIV
# Description: One of the most important mechanisms of HIV infection is that mediated by the introduction of the virus through cells presenting antigen DC-SIGN+, which is called trans-infection. This mechanism was studied with a system based on cells DC-SIGN+ (RAJI DC-SIGN) that mimetizes the natural infection conditions. The target of the infection are PBMC cells from healthy donors. The results obtained with Hydroxytyrosol are show in table 1 and FIG. 4.
structure (smiles),measurement,setting,value
"OCCc1ccc(O)c(O)c1 [Hydroxytyrosol, 4-(2-hydroxyethyl)-1,2-benzenediol]",EC50,"Human immunodeficiency virus 1, Raji",4.88 µM
same,inhibition of trans-infection with R5-tropic virus,compared with direct infection,more potency that in the assays with direct infection
